In PubChem BioAssay AID360 (National Center for Advancing Translational Sciences (NCATS), 2006):
Hit rate of the full screen: of about 48,000 compounds, about 550 (1.1%) were called active. Roughly 4% stayed inconclusive and do not appear here. Cut-off read from the data, not from the text of the source: active = potency below about 15 µM; inconclusive = mostly about 16 µM to 33 µM; inactive = weaker than that. This is one part of the list.
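Note: the screen sought inhibitors.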
Potency is the fitted concentration of half-maximal effect.

The molecules below were run against Lysosomal acid glucosylceramidase (Homo sapiens) (UniProt P04062) (assay: Glucocerebrosidase). Conditions: purified enzyme, resorufin glucoside fluorescence (screen aimed at inhibitors), 20 min.
Chain of UniProt P04062 (P04062 whole entry, looked up): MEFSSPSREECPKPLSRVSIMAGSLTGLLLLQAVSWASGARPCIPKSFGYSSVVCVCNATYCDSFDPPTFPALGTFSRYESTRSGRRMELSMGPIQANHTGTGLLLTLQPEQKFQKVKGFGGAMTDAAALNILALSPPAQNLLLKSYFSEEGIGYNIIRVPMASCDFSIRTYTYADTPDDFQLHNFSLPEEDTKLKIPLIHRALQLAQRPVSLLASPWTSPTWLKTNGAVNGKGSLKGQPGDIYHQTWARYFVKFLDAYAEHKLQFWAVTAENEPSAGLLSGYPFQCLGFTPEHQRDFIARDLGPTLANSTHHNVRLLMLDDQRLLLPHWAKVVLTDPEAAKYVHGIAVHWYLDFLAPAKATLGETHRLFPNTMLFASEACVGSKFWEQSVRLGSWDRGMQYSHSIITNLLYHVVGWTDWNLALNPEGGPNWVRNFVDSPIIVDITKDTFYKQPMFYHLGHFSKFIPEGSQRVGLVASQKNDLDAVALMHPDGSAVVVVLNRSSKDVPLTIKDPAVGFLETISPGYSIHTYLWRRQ
Procedure, shortened: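 Wild-type enzyme at 0.2 nM final in 50mM citric acid/KH2PO4, 10mM sodium taurocholate, 0.01% tween-20, pH 5.9, with resorufin beta-D-glucopyranoside at 30 uM final. Compounds titrated, 20 min at RT, red fluorescence read; AC50 from titration.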
In the case of `CCOc1ccc(C(C)=O)cc1CSc1nnc(-c2cccs2)n1CC1CCCO1` (configuration not stated), the Potency is reported as inactive: > 76.9 µM.
With `O=c1[nH]nc(CSCc2ccccc2Cl)[nH]1` the Potency was inactive: > 76.9 µM.
For `CCOC(=O)N1CCN(C(=O)Nc2ccc(Cl)cc2Cl)CC1`, the Potency was inactive: > 76.9 µM.
With `O=C(c1cccc(-n2cnnn2)c1)N1CC=C(c2ccccc2)CC1` the Potency was inactive: > 76.9 µM.
In the case of `CCc1ccc2[nH]c(=O)c(C(c3nnnn3CC3CCCO3)N3CCCc4ccccc43)cc2c1` (configuration not stated), the Potency is reported as “inactive”.
In the case of `Cc1cc(C)cc(NCC(=O)Nc2c(C)cccc2C)c1`, the Potency is reported as inactive: > 76.9 µM.
In the case of `Cc1nc2cc(NC(=O)NCc3ccc4c(c3)OCO4)ccc2o1`, the Potency is reported as inactive: > 76.9 µM.
`CCn1c(=NC(=O)CSCC(=O)Nc2nccs2)sc2ccccc21` was tested, and the Potency was inactive: > 76.9 µM.
In the case of `Cc1nc2ccccc2n1CC(=O)N1CC(=O)Nc2ccccc21`, the Potency is reported as inactive: > 76.9 µM.
In the case of `Cc1cc(Cl)c(S(=O)(=O)NC2CCCCC2)cc1OCC(=O)Nc1nncs1`, the Potency is reported as “inactive”.
`CCN(CC)CCNC(=O)Cc1nn(CC)c(=O)c2ccccc12` was tested, and the Potency was inactive: > 76.9 µM.
`CCOc1ccc(NC(=O)CCS(=O)(=O)c2cccc3nsnc23)cc1` was tested, and the Potency was inactive: > 76.9 µM.
In the case of `Cc1cccc(OCC(O)CN2C(C)(C)CC(O)CC2(C)C)c1C` (configuration not stated), the Potency is reported as inactive: > 76.9 µM.
For `O=C(CC1CCS(=O)(=O)C1)Nc1ccc[nH]c1=O` (configuration not stated), the Potency was inactive: > 76.9 µM.
For `CCCc1nc2oc3c(NCc4ccccn4)ncnc3c2c2c1COC(C)(C)C2`, the Potency was inactive: > 76.9 µM.
For `NC(=O)c1c(N)sc(=S)n1-c1ccccc1`, the Potency was inactive: > 76.9 µM.
`CCCOc1ccc(C(CC(=O)O)NS(=O)(=O)c2ccc(NC(C)=O)cc2)cc1` (configuration not stated) was tested, and the Potency was inactive: > 76.9 µM.
For `COc1ccc(-c2nsc(SCC(=O)Nc3cc(C)on3)n2)cc1`, the Potency was inactive: > 76.9 µM.
`COc1ccc2c(C(F)(F)F)cc(=O)oc2c1C` was tested, and the Potency was inactive: > 76.9 µM.
In the case of `Cc1ccc2c(c1)cc(CN(Cc1ccccc1)C(=O)N(C)C)c1nnnn12`, the Potency is reported as inactive: > 76.9 µM.
With `CCn1c(SCC(=O)Nc2nccs2)nnc1-c1cc2cccc(OC)c2o1` the Potency was inactive: > 76.9 µM.
`Cc1onc(-c2ccccc2Cl)c1C(=O)Nc1ccc(F)c(F)c1` was tested, and the Potency was “inactive”.
In the case of `COc1ccc(OC)c(NS(=O)(=O)c2ccc(SC)cc2)c1`, the Potency is reported as inactive: > 76.9 µM.
For `O=C(CN1C(=O)NC(Cc2ccccc2)C1=O)Nc1ccc(F)cc1` (configuration not stated), the Potency was inactive: > 76.9 µM.
`COC(=O)c1ccccc1NC(=O)CSc1ccccn1` was tested, and the Potency was inactive: > 76.9 µM.
For `Cc1cc(C)n(C(=O)c2ccc(S(=O)(=O)N3CCCC3)cc2)n1`, the Potency was inactive: > 76.9 µM.
`CC(C)C1N=C2c3ccccc3N=C(SCc3cc(=O)n4ccccc4n3)N2C1=O` (configuration not stated) was tested, and the Potency was inactive: > 76.9 µM.
`Cc1c(C(=O)O)oc2ccc(S(=O)(=O)NCc3ccc(F)cc3)cc12` was tested, and the Potency was inactive: > 76.9 µM.
With `O=C(Cc1ccccc1)Nc1cccc(N2CCCC2)c1` the Potency was inactive: > 76.9 µM.
`CCn1cnc2cc(NCc3ccncc3)ccc21` was tested, and the Potency was inactive: > 76.9 µM.
With `Cc1cc(=O)n(-c2ccc3ccccc3n2)[nH]1` the Potency was inactive: > 76.9 µM.
With `Cc1sc2ncn3ncnc3c2c1C` the Potency was inactive: > 76.9 µM.
`O=S1(=O)CCN2C(Cc3ccc(SC(F)F)cc3)=CSC2=N1` was tested, and the Potency was inactive: > 76.9 µM.
For `Clc1ccc(OCc2nn3c(-c4ccccc4)nnc3s2)c(Cl)c1`, the Potency was inactive: > 76.9 µM.
`COc1ccc(CC(NC(C)=O)C(=O)NC2CCN(S(=O)(=O)c3ccccc3)CC2)cc1OC` (configuration not stated) was tested, and the Potency was inactive: > 76.9 µM.
In the case of `O=S(=O)(NCc1ccco1)c1ccc2c(c1)Cc1ccccc1-2`, the Potency is reported as inactive: > 76.9 µM.
`COc1ccc2nc(NC(=O)CSc3nnc4n3C(C)(C)Cc3ccccc3-4)sc2c1` was tested, and the Potency was inactive: > 76.9 µM.
In the case of `CCN(CC)S(=O)(=O)c1ccc(C(=O)Nc2c3c(nn2C(C)(C)C)CS(=O)(=O)C3)cc1`, the Potency is reported as inactive: > 76.9 µM.
For `Cc1cc(=O)[nH]c(/N=C(/NC(=O)c2ccccc2)Nc2ccc3c(c2)OCCO3)n1`, the Potency was inactive: > 76.9 µM.
With `c1c2c(cc3sc(N4CCOCC4)nc13)OCCO2` the Potency was inactive: > 76.9 µM.
`CCOCCCN1CC(C(=O)NCCc2ccc(C)cc2)CC1=O` (configuration not stated) was tested, and the Potency was inactive: > 76.9 µM.
In the case of `O=C(O)CC(c1ccc(Cl)cc1)N1C(=O)CCC1=O` (configuration not stated), the Potency is reported as inactive: > 76.9 µM.
`CCOC(=O)c1[nH]c2ccc(F)cc2c1NC(=O)C(C)N1CCc2cc(OC)c(OC)cc2C1` (configuration not stated) was tested, and the Potency was inactive: > 76.9 µM.
With `Cc1ccc(C)n1NC(=O)c1ccco1` the Potency was inactive: > 76.9 µM.
In the case of `Cn1c(SCC(=O)Nc2ccc(N3CCOCC3)c(Cl)c2)nnc1C(O)c1ccccc1` (configuration not stated), the Potency is reported as inactive: > 76.9 µM.
With `CC1(C)CC(=O)N(CC(=O)O)c2ccccc2S1` the Potency was inactive: > 76.9 µM.
With `CCOC(=O)C1=C(C)NC(C)=C(C(=O)OCC)C1` the Potency was inactive: > 76.9 µM.
`CCOP(=O)(c1ccc(N(C)C)cc1)C(O)c1cc(OC)c(OC)c(OC)c1` (configuration not stated) was tested, and the Potency was inactive: > 76.9 µM.
With `CC1CN(C(=O)Cn2cnc3c2c(=O)n(C)c(=O)n3C)CC(C)O1` (configuration not stated) the Potency was inactive: > 76.9 µM.
For `CCC(C)(C)n1nnnc1C(c1ccc(C)cc1)N1CCCC1` (configuration not stated), the Potency was inactive: > 76.9 µM.
In the case of `Cn1nc(C(=O)Nc2ccc(S(=O)(=O)N3CCCCC3)cc2)ccc1=O`, the Potency is reported as inactive: > 76.9 µM.
`Cc1c(C(=O)O)oc2c1C(O)CCC2` (configuration not stated) was tested, and the Potency was inactive: > 76.9 µM.
`CN(C)C=Nc1nonc1N` was tested, and the Potency was inactive: > 76.9 µM.
`CCOc1cc2[nH]c(=O)n(CCc3ccc(OC)c(OC)c3)c(=O)c2cc1OCC` was tested, and the Potency was inactive: > 76.9 µM.
`CCOC(=O)c1cnc(-c2cccc(OC)c2)[nH]c1=O` was tested, and the Potency was inactive: > 76.9 µM.
`O=C(Nc1ccc(N2CCOCC2)cc1)Nc1ccc2nc(-c3ccco3)c(-c3ccco3)nc2c1` was tested, and the Potency was inactive: > 76.9 µM.
`CCOC(=O)CSc1nnc(NCC(=O)OC(C)C)c(=O)[nH]1` was tested, and the Potency was inactive: > 76.9 µM.
In the case of `Cc1ccc(C)c(C(=O)NCc2ccncc2)c1`, the Potency is reported as inactive: > 76.9 µM.
For `O=C(OCc1cc(=O)n2c(n1)sc1ccccc12)c1ccc2c(=O)n3c(nc2c1)CCC3`, the Potency was inactive: > 76.9 µM.
`O=C1Nc2ccc(S(=O)(=O)NCc3ccccn3)c3cccc1c23` was tested, and the Potency was inactive: > 76.9 µM.
For `CN1CCN(c2c(F)cc3c(=O)c(C(=O)O)cn4c3c2SCC4)CC1`, the Potency was inactive: > 76.9 µM.
With `C/C(Cl)=C\Cn1c(N2CCCCCC2)nc2c1c(=O)n(C)c(=O)n2C` the Potency was inactive: > 76.9 µM.
For `N#Cc1ccccc1NC(=O)c1ccccc1OCC(=O)Nc1ccc2c(c1)oc1ccccc12`, the Potency was active: 11.2 µM.
`CCOC(=O)c1cc2c(=O)n3cccc(C)c3nc2n(Cc2ccccc2Cl)c1=N` was tested, and the Potency was inactive: > 76.9 µM.
With `CCn1c(CC(=O)Nc2cccc(OC)c2)nnc1SCC(=O)Nc1nccs1` the Potency was inactive: > 76.9 µM.
In the case of `CCOc1ccc(Cc2nc(-c3nonc3N)no2)cc1OCC`, the Potency is reported as inactive: > 76.9 µM.
For `CCN1CCCC1CNC(=O)C1CCN(Cc2nc(-c3cccc(Br)c3)oc2C)CC1` (configuration not stated), the Potency was inactive: > 76.9 µM.
`CCOC(=O)c1cc(C)sc1NC(=O)C1CCC1` was tested, and the Potency was inactive: > 76.9 µM.
With `Cc1ccc(SC(C)C(=O)NCC(C)C)cc1` (configuration not stated) the Potency was inactive: > 76.9 µM.
`O=C(CSC1=NCCS1)N1CCCC1` was tested, and the Potency was inactive: > 76.9 µM.
`Cc1ccc(-n2ncc3c(=O)n(CC(=O)N4CCCCCC4)cnc32)cc1` was tested, and the Potency was inactive: > 76.9 µM.
`Cc1ccccc1NC(=O)c1cccc2nccnc12` was tested, and the Potency was inactive: > 76.9 µM.
In the case of `O=C(CCCn1c(SCC(=O)NC2CCCCC2)nc2ccccc2c1=O)NCC1CCCO1` (configuration not stated), the Potency is reported as inactive: > 76.9 µM.
In the case of `CCOC(=O)C1=C(C)OC(N)=C(C#N)C1c1c(C)nn(-c2ccccc2)c1Cl` (configuration not stated), the Potency is reported as inactive: > 76.9 µM.
`COC(=O)C1=C(N)Oc2cc(C)n(CCc3ccccc3)c(=O)c2C1c1cccnc1` (configuration not stated) was tested, and the Potency was inactive: > 76.9 µM.
In the case of `CCCC(=O)N1CCN(c2ccc(NC(=O)c3ccccc3)cc2)CC1`, the Potency is reported as inactive: > 76.9 µM.
With `Brc1cccc(-c2nnc3sc(CN4CCCCC4)cn23)c1` the Potency was inactive: > 76.9 µM.
For `O=C(c1noc2c1CCCC2)N1CCN(c2ccccc2)CC1`, the Potency was inactive: > 76.9 µM.
For `COc1cc2[nH]c(=S)nc(NCC3CCCO3)c2cc1OC` (configuration not stated), the Potency was “inactive”.
With `CN1CC[n+]2c(CN3C(=O)c4ccccc4C3=O)csc21` the Potency was inactive: > 76.9 µM.
For `Cc1ccc(-c2c3c(=O)n(C)c(=O)n(C)c3cn2Cc2cccnc2)cc1`, the Potency was inactive: > 76.9 µM.
With `CCNC(=O)c1sc(=S)n(CC)c1N` the Potency was inactive: > 76.9 µM.
`CCCCCNC(=O)C(C#N)c1nc2ccccc2nc1N1CCCC1` (configuration not stated) was tested, and the Potency was inactive: > 76.9 µM.
In the case of `Cc1ccc(N2C(=O)CSC2c2cccs2)cc1` (configuration not stated), the Potency is reported as inactive: > 76.9 µM.
For `CCOC(=O)c1cc2sc(C)cc2n1CC(=O)N1CCN(C(=O)c2ccco2)CC1`, the Potency was inactive: > 76.9 µM.
`Cc1ccc(S(=O)(=O)NC2CCCC(C(=O)O)C2)cc1` (configuration not stated) was tested, and the Potency was inactive: > 76.9 µM.
For `CS(=O)(=O)N1CCN(c2ncccn2)CC1`, the Potency was inactive: > 76.9 µM.
With `O=C(O)C1C2C=CC3(CN(c4cccc(C(F)(F)F)c4)C(=O)C13)O2` (configuration not stated) the Potency was inactive: > 76.9 µM.
With `O=C(O)CN1C(=O)Nc2ccc(Br)cc2C1c1ccccc1` (configuration not stated) the Potency was inactive: > 76.9 µM.
In the case of `CCOC(=O)CN1C(=O)CSc2ccccc21`, the Potency is reported as inactive: > 76.9 µM.
In the case of `Cc1sc2ncn(CC(=O)OC(C)C(=O)NC(C)(C)C)c(=O)c2c1C` (configuration not stated), the Potency is reported as inactive: > 76.9 µM.
For `Cc1ccc(N2CC(C(=O)NCCC(C)C)CC2=O)cc1` (configuration not stated), the Potency was inactive: > 76.9 µM.
